Measured values reported in the supplement of paper PMC3334620.
In all, about 33,000 sequences were measured (“E-score (-0.5 to 0.5)”: median about -0.04, highest 2% from about 0.36 on). The list shows a part of the results.

target: T1, Hmlalpha2 (UniProt P0CY09); test: PBM E-score (8-mer binding enrichment) (E-score (-0.5 to 0.5)); higher = stronger / more preferred TF binding; most listed sequences are background and not binding sites; details: protein concentration: 200 nM; construct: GST-full length
T1 sequence: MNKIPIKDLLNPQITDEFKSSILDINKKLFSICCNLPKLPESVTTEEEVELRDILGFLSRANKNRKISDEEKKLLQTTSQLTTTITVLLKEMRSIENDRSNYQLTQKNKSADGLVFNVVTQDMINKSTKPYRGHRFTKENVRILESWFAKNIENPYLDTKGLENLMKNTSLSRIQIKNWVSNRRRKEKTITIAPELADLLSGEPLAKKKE
Protocol: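 Universal 'all 10-mer' protein binding microarrays (Agilent AMADID 015681) probed with GST-tagged S. cerevisiae TFs (full-length or DBD) made by in vitro transcription/translation (PURExpress), about 100-200 nM. Bound TF was detected with fluorescent anti-GST. Each ungapped 8-mer (which stands for itself and its reverse complement) is scored by the PBM enrichment score (E-score), a modified Wilcoxon-Mann-Whitney statistic from -0.5 to +0.5, computed with the Universal PBM Analysis Suite. Scale: above 0.35 generally sequence-specific binding.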

Sequence	PBM E-score
ATATTACA	0.439
AATATAAA	0.138
GACATCCC	-0.0319
AGTCTAGC	-0.287
GCGCTTGA	-0.0211
AAACCTGA	-0.12
ACTGAAGG	-0.0352
CGTAGCCA	-0.135
ACGCACGC	0.222
CAGTGCAG	-0.0392
CTAGGTGA	-0.157
AGCCACGG	-0.254
AACCATGG	-0.151
AGATCGTA	-0.103
ATGGTAAT	0.229
TTGGACAA	0.0109
AGCCGTCA	-0.154
CGTACCAG	-0.11
ATGTACAT	0.457
ATCAATTC	-0.0186
GTTAAAAA	0.369
CCCGCTTC	-0.186
CCAGCGAG	-0.231
GCTTGTCC	0.0243
ACCAGCCT	-0.298

Sequence	PBM E-score
CTTGGAAA	0.00718
AGGAGGAT	-0.0653
AACCCACT	0.049
GGGGGTGA	-0.275
CACCGGGC	-0.256
AAGCCTAC	-0.0304
ATTCCGTC	-0.126
AAGACCTT	-0.043
GTGTCCGA	-0.00682
TGTCCAAA	0.129
GTTGCGCA	0.0149
GGGGACAC	-0.178
CTTAGTGC	-0.0694
CCTTGGAC	-0.179
AGCAAGCG	-0.131
GGCAGCCC	-0.418
CCATGTCA	0.333
GAAGGCAC	-0.049
CCTGAACC	-0.0377
GTATACAC	0.416
AGGATCGA	-0.105
AGCCGGAG	0.00718
ACAGGCAT	0.0686
ACAAGCCC	-0.0483
CCGGACCA	-0.0856

Sequence	PBM E-score
AAGTATAT	0.145
ACTTGCGA	-0.0274
ATGGCGTC	-0.143
CCATGTCG	0.336
AGCTTCCG	-0.161
AAACGTGC	0.0623
CGAATTAA	0.105
CCCATAAC	0.026
AGTTTATA	0.222
ATCCGACC	-0.0115
ATCAGTAG	-0.0277
CATGGACC	-0.0675
ACAGTTGA	-0.0582
ACCCCATC	-0.218
AATTACTG	0.11
ACTGCGCA	-0.113
AGGTAAAG	0.19
CGCTAACA	0.205
ATATTTTA	0.101
TCTTGCAA	0.131
ACATATGC	0.123
CGAGTATA	0.0118
CCCAGGGA	-0.372
CGAAATCC	-0.0484
TGGAGTAA	0.0743

Sequence	PBM E-score
ATCCTGAC	-0.0392
AACAGCCT	-0.0473
AGACCGAC	-0.068
GCCACCGA	-0.176
AGCACTGA	-0.209
ACGTTATC	0.145
CGAAATTA	0.137
CCGCTTAC	0.0139
GAACATGA	0.31
ACCTGTAG	-0.162
CATCCCGG	-0.169
ATGTGCCG	-0.252
GTGGCAGA	-0.286
ATAAGAGG	-0.214
ACAAGAAG	0.109
GCAAGGGC	-0.33
AACGCCAG	0.0358
ATCGATTG	0.0324
CACGCGCG	0.0866
CTTATGCC	-0.135
CCGGCACC	-0.24
TACAAACA	0.314
AACCCTGA	-0.0189
TTGCCAAA	-0.11
CCCTCGCC	-0.357

Sequence	PBM E-score
CATGCCTA	-0.234
ATAGATTG	0.041
CGCCAAAG	-0.306
GAGCCACA	-0.238
ACGACTGC	-0.0517
AAACTCAC	0.0451
CTGTGCTA	-0.00224
CTATCGCA	-0.0573
GCCTTGTA	0.33
CCCAATCA	-0.113
CGTAGGTA	0.0458
ATGTGACA	0.15
CAAGTGCG	-0.0741
AGATCTCC	-0.287
AGGCCGGG	-0.193
ATACCGGA	-0.0288
CGCAGAAG	-0.0475
GGGTCGAA	-0.276
AGAACTAG	-0.104
TCGCGCGA	-0.0296
TAACGTTA	0.268
ATTGATCC	-0.048
AGATCCAA	-0.0165
CGAATACC	-0.0493
GACGTCGA	0.0909

Sequence	PBM E-score
ACTGTCGA	0.0139
ACCAGTGG	-0.0748
ACAGACAG	-0.0215
GGCCTAAA	-0.148
ATCCTTTC	0.00253
ACAGTGGT	-0.14
CCGATCTA	-0.0562
GGCGGGGA	-0.212
CGAAACGC	-0.104
AGTAGCGG	-0.155
GAATGCCA	-0.207
ACACGCGT	0.43
GCGTCAAA	0.148
CGGTTACC	-0.169
AGTTGCTC	-0.168
GCAACGCC	0.0517
ATATTAAG	0.131
CACTGGTC	-0.109
AACGGCCA	-0.0115
AAAACTTT	0.0466
AAATGACC	-0.147
AGCTGGGA	-0.165
CACAGCCA	0.139
AGGCCGTC	-0.187
CGCCCAGC	-0.189

Sequence	PBM E-score
GAGTACCC	-0.19
GCGTAGGA	-0.144
AGCCATCC	-0.153
CTGAACAC	0.158
AGGTATAG	-0.145
CACGACCA	0.127
CTACCTGC	-0.087
ATCCGAGA	-0.239
GCTATGAA	0.0788
GAAACTAA	0.0477
AACACAAT	0.373
GTCCAGTA	-0.054
ATTGTACG	0.123
ATCGGGTG	-0.0806
CTGCCCCA	-0.248
ATACACGC	0.449
CTGGCGTA	-0.0219
CTATGGTC	-0.265
AAGGTATC	-0.224
AATCCGCA	-0.211
AATGTGCT	0.0332
TCCGGTCA	-0.0667
CTGGCATC	-0.19
ACGCTTTC	-0.0168
AGGGCCTA	-0.182

Sequence	PBM E-score
AAGGGAGA	0.0111
CAAACAAA	0.0667
TGGCTACA	0.0258
CACCTTGC	0.0122
GCTGCATA	0.133
CTCATCAC	0.00381
GATCATGA	0.0598
ACCCCGAT	-0.328
AGCTTTCA	0.099
AATGGCCA	-0.165
CAAACAGC	2e-05
AGCGTCGA	0.176
AAGTGCTA	0.0881
CGACGGTC	-0.112
GGTTGGAC	-0.174
TCCACTAA	-0.0128
ACTCCTAA	-0.0597
CTGGGTAA	0.125
CGCCCGAG	-0.112
ATAACATA	0.437
ACTGCGTA	0.244
AAGGGCCA	-0.0263
CGCGCAAA	0.136
GGTGCGAA	-0.0789
ATAGAGTA	0.117

Sequence	PBM E-score
TCGACACA	0.318
GAACACGA	0.287
ACAAGCCG	0.146
AAGATAGT	0.0103
GGTTCAAC	-0.0347
ATCTTATA	0.00606
ATTGACCG	0.0885
CCCAGATA	-0.316
ACAGCCGC	-0.252
CAACGCGG	0.176
ACCATTCA	0.191
ACTTTGTC	0.0436
CCAGCTCA	-0.18
GGGGCGTA	-0.0616
CCGGCTGA	-0.141
CACTACCG	-0.241
TCGTACAA	0.212
AAGAAAAG	-0.024
CCAAGCCA	-0.137
